Data from article PMC4336329 (PLoS ONE, 2015).
The campaign covered roughly 310,000 compounds. About 14,000 (4.5%) showed an effect of 50% or more. Effects have a minus sign here. The list shows a part of the results.

What follows are compounds tested against human ether-à-go-go-related gene (hERG) potassium channel (human, UniProt Q12809) (assay: primary screen, population patch clamp on CHO cells stably expressing hERG).
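Also: peak tail current of the secondary pulse compared with the same well before compound.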

Sequence of human ether-à-go-go-related gene (hERG) potassium channel (Q12809 whole entry, looked up): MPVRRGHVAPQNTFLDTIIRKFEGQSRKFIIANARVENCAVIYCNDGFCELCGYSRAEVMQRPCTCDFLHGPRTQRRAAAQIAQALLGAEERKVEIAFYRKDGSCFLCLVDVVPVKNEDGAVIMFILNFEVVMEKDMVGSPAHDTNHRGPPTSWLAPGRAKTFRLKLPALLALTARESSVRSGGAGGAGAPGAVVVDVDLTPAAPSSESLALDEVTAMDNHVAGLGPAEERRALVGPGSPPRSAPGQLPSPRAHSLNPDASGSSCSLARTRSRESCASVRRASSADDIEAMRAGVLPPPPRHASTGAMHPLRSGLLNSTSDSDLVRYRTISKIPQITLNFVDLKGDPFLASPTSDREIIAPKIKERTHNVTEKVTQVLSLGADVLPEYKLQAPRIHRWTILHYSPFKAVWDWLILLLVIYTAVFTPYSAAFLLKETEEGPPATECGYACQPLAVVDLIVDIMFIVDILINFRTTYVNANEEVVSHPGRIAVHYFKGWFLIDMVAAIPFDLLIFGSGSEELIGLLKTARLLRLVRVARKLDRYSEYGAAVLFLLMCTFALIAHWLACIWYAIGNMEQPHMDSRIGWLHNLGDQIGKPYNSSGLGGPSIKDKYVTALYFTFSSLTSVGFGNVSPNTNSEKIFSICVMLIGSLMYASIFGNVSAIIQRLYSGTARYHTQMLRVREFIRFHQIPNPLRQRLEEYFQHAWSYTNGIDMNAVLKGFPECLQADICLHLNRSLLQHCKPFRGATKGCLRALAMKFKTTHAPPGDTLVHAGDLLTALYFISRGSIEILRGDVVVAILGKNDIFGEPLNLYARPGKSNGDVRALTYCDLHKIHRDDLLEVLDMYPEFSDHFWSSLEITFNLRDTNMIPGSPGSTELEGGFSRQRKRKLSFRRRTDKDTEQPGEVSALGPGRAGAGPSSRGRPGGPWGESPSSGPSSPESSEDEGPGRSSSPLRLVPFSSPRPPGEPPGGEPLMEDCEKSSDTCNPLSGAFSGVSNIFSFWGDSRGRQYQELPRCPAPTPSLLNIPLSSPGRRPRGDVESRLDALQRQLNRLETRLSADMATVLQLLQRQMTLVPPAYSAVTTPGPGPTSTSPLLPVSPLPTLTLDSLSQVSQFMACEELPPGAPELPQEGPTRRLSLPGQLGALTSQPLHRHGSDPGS

Row | Structure (SMILES) | hERG current change (%, negative = inhibition) at 10uM
1 | CCC(CC)NC(=O)Nc1ccc(F)cc1F | 7.35%
2 | COCCn1c(SCc2cccc([N+](=O)[O-])c2)nc2ccccc2c1=O | -16.2%
3 | C=CCn1c(Cc2ccc(OCC)cc2)nnc1SCC(N)=O | 10%
4 | O=C(NC(=S)Nc1ccc(Oc2ccc(Cl)cc2)cc1)c1ccccc1 | 10.7%
5 | Cc1ccc2ccc(C(Nc3ccccn3)c3ccccc3)c(O)c2n1 (stereo not shown) | -3.72%
6 | C/C(CC(=O)Nc1ccccn1)=N\NC(=O)Cc1cccc2ccccc12 | 1.01%
7 | Clc1cccc(Cl)c1-c1noc(-c2ccno2)n1 | -6.35%
8 | O=C(NNC(=O)c1ccccc1C(=O)O)c1ccc(-c2ccccc2)cc1 | -3.52%
9 | CC(CN1CCN(Cc2ccccc2)CC1)c1ccccc1.O=C(O)C(=O)O (stereo not shown) | -14%
10 | CC(=O)N1CCN(c2ccc(NC(=O)c3ccc(Cl)c([N+](=O)[O-])c3)cc2)CC1 | -10.9%
11 | O=C(CCNS(=O)(=O)c1ccc(Cl)cc1)N1CCC2(O)CCCCC2C1 (stereo not shown) | 1.08%
12 | COc1cccc(-n2c(Cc3cc(=O)[nH]c(=O)[nH]3)nnc2SCC(=O)N2CCC(C)CC2)c1 | 26.2%
13 | Cc1cc(C)cc(NC(=O)C2CCN(S(=O)(=O)c3ccc4c(c3)NC(=O)C(C)S4)CC2)c1 (stereo not shown) | 8.79%
14 | Cc1ccc(N2C(=O)c3cccc4cccc(c34)C2=O)cc1 | 16.7%
15 | O=C(Nc1ccc(F)cc1)N1CCCC(c2nc3c(nnn3Cc3ccccc3Cl)c(=O)[nH]2)C1 (stereo not shown) | 16.7%
16 | Cc1nnc(C)c2c(C)n(C(C)c3ccccc3)c(C)c12 (stereo not shown) | -20.7%
17 | CCCc1c(C)nc(N2CCN(c3cccc(OC)c3)CC2)[nH]c1=O | 17.4%
18 | CCOC(=O)C1CCN(c2c(N3CCCCCC3)c(=O)c2=O)CC1 | -10.5%
19 | Cc1ccccc1Cn1c(C)nc2ccccc21 | 8.3%
20 | Cc1ccc(C(=O)N/C(=C\c2cccnc2)c2nc3ccccc3[nH]2)cc1 | -19.7%
21 | CCOC(=O)COc1ccc2c(=O)c(-c3ccc(OC)c(OC)c3)c(C(=O)OCC)oc2c1 | -15.7%
22 | Cc1ccc(NC(=O)CSc2nnc(-c3ccncc3)n2C)cc1S(=O)(=O)N1CCOCC1 | 0.576%
23 | Cc1cc(C)n(/N=C/c2cc([N+](=O)[O-])ccc2O)c(=O)c1 | 18.2%
24 | O=C1CCCN1c1cc(Cl)cc(Cl)c1 | 4.18%
25 | CCCCN(CC)CCNC(=O)Cn1cc2c(n1)-c1c(oc(C(=O)N3CCCC3)c1C)CC2 | -27.9%
26 | O=C(COC(=O)/C=C/c1ccc(S(=O)(=O)N2CCOCC2)cc1)NC1CCCCCCC1 | 32.2%
27 | CCOc1cccc(SCc2noc(C(=O)NCCOC)c2C(=O)O)c1 | -3.55%
28 | Cc1nn(C)c(Cl)c1C(=O)NC(C(=O)O)c1ccccc1 (stereo not shown) | -14.7%

Row | Structure (SMILES) | hERG current change (%, negative = inhibition) at 10uM
29 | COCCCNC(=O)c1ccc2c(=O)n(Cc3ccc(OC)cc3)c(=O)[nH]c2c1 | 1.04%
30 | c1ccc(CN(Cc2ccccc2)c2c3c(nc4ncnn24)CCC3)cc1 | -31.1%
31 | CC(=O)N1CCN(c2ccc(Oc3ccc([N+](=O)[O-])c(C(F)(F)F)c3)cc2)CC1 | -59.9%
32 | COC(=O)c1cc(OC)c(OC)cc1NC(=O)c1c(-c2ccccc2)noc1C | -6.47%
33 | COc1ccc(C2c3[nH]c4ccccc4c3CCN2C(=O)c2cc3ncccn3n2)c(F)c1 (stereo not shown) | -1.88%
34 | O=C(O)CSc1nc(-c2ccccc2)nc2c1CCCC2 | 12.8%
35 | N#Cc1nc(COc2cccc(Cl)c2)oc1NCc1ccco1 | -16.8%
36 | CCOc1ccc(S(=O)(=O)NCCC(=O)OCC(=O)c2ccc(NC(C)=O)cc2)cc1 | 1.73%
37 | CCN1C(=O)c2cccc3c(S(=O)(=O)NCCCN4CCOCC4)ccc1c23 | -12.8%
38 | CCCOc1ccc(C(=O)NCC(c2cccs2)N(C)C)cc1 (stereo not shown) | -25.3%
39 | O=S(=O)(NCc1cccs1)c1ccccc1Cl | -10.1%
40 | CCOC(=O)C(C)Oc1cccc2c(=O)n(CC(=O)N3CCCc4ccccc43)ccc12 (stereo not shown) | 17.5%
41 | COc1ccccc1[N+](=O)[O-] | 18.6%
42 | COCCn1nnnc1C(c1ccc(Cl)cc1)N1CCN(C(=O)c2ccco2)CC1.Cl (stereo not shown) | -22.4%
43 | CCCCN(CC(=O)NC1CCCC1)C(=O)C(=O)Nc1ccc2c(c1)OCCO2 | 5.61%
44 | COc1ccccc1/C=C/C=N/NC(=O)c1ccccn1 | -5.65%
45 | CCCCN(CCCC)C(=S)NC(=O)c1ccccc1Cl | 12.2%
46 | Cc1ccc(C(=O)Cn2nnc3c(sc4nc5c(c(-c6ccccc6)c43)CCC5)c2=O)cc1 | 15.1%
47 | CCN(CC)S(=O)(=O)c1ccc(N2CCN(C)CC2)c(NC(=O)Nc2ccc(C)cc2)c1 | -12.2%
48 | O=[N+]([O-])c1ccc(C(=Nc2cccc3ccccc23)N2CCOCC2)cc1 | -63.5%
49 | Cc1cc(S(=O)(=O)Nc2cc(C)c(O)c(C)c2)c(C)s1 | -11.9%
50 | Cc1ccc(C2CN(CCC(N)=O)C(=O)CO2)cc1 (stereo not shown) | 1.94%
51 | COCCNc1cc(NCCOC)c([N+](=O)[O-])cc1[N+](=O)[O-] | 4.6%
52 | Cc1cc(/C=C2\SC(=S)NC2=O)c(C)n1-c1cccc(O)c1 | 9.51%
53 | CCOC(=O)CN1C(=O)CC(c2ccc([N+](=O)[O-])cc2)C1=O (stereo not shown) | -14.1%
54 | COc1ccc2ccc3c(c2c1)N=CC1(O3)N(C)c2ccccc2C1(C)C (stereo not shown) | 3.92%
55 | CC1(C)N([O-])C(c2ccccc2)=C[N+](=O)C1(C)C | 1.38%
